The other results are listed elsewhere or left out.

Results on 42 sequences are retold here after article PMC7819943, “Rice protein-binding microarrays: a tool to detect cis-acting elements near promoter regions in rice”.

For this assay, the target named is T1, OsWOX13 (Oryza sativa, UniProt Q5QMM3 1-267).
T1 sequence: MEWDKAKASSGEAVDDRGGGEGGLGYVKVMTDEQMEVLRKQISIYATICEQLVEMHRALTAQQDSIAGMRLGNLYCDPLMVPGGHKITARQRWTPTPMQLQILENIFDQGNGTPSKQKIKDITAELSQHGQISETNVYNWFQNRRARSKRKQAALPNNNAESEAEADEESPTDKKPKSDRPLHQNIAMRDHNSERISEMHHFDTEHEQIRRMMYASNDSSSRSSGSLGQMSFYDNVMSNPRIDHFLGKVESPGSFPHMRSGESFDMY
In words: protein-binding microarray (RPBM); PBS, 2% BSA, 51.3 ng/ul salmon testes DNA, 50 uM zinc acetate, 200 nM TF, 25 C, 1 h; high values mean tight binding. Conditions: protein: recombinant; tags: N-terminal polyhistidine and DsRed monomer fusion (pET32a); label: CyDye5-dUTP incorporated in the synthesized complementary strand; 3' TTTTT single-stranded linker to array surface; dsDNA, one strand shown. An outline of the steps:
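Transcription factors, each fused N-terminally to a polyhistidine tag and DsRed, were expressed in E. coli BL21-CodonPlus and purified on Ni–NTA. A custom Agilent array was made double-stranded by primer extension with Cy5-dUTP and blocked with 2% BSA. It was incubated with 200 nM protein in PBS, 2% BSA, salmon testes DNA and 50 µM zinc acetate at 25 °C for 1 h, then washed. The binding signal is per-feature fluorescence intensity (arbitrary units) read on an Axon 4000B scanner.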
For the sequence “CATAAATTGAACTATGGCTTGACTAAAAGAGTTAGCCAGCCGGAGTCACCTAGTGCAG”, the binding signal was 41800 fluorescence intensity (a.u.).

Take “TAATTTTCTGAGTGATCAAATAATTGACCATAATTTTCCACGGAGTCACCTAGTGCAG”: the binding signal is 8420 fluorescence intensity (a.u.).

On to “AAAGATTTTGATTAGGACTTACATCAGATCAAACAAATCTCGGAGTCACCTAGTGCAG”, for which the binding signal is 12700 fluorescence intensity (a.u.).

For “ACAGACTGACGACGTTTCATGACTGACTGTTTGACTTATCCGGAGTCACCTAGTGCAG”, the binding signal was 10500 fluorescence intensity (a.u.).

Consider “ATCTAAATTTTGACTTCACCCTTATTTAGAACGATAAGTACGGAGTCACCTAGTGCAG”, for which the binding signal was 5140 fluorescence intensity (a.u.).

In the case of “GAGGGATGACAAATTGTTCAGTCAAACACGCTTCATGTAGCGGAGTCACCTAGTGCAG”, the binding signal was 5210 fluorescence intensity (a.u.).

Take “CTAGAATGTTGTAAAATTAATTTATTACTTACCTATAATGCGGAGTCACCTAGTGCAG”: the binding signal is 10000 fluorescence intensity (a.u.).

Turning to “AAAATACTCACAATTAATTATATGTAGTTAGCTTCTGTAACGGAGTCACCTAGTGCAG”, the binding signal is 10000 fluorescence intensity (a.u.).

Regarding “AACATCGACATGATTGATGCCTGCCAATTAGCTCAGGAGGCGGAGTCACCTAGTGCAG”, the binding signal was 28200 fluorescence intensity (a.u.).

Consider “TTCGTGATAGTTTCGTGATAAATTTGGCACTAAATCTGCACGGAGTCACCTAGTGCAG”, for which the binding signal was 10600 fluorescence intensity (a.u.).

Regarding “GCTGATGACGTCCCTATCGGTTCTTATCTCAGTTCCTCCCCGGAGTCACCTAGTGCAG”, the binding signal is 4130 fluorescence intensity (a.u.).

For the sequence “TAAATTTATCATTAAACAAACTATCATAATATACAACTCTCGGAGTCACCTAGTGCAG”, the binding signal is 9070 fluorescence intensity (a.u.).

Regarding “CGAATCCGGTGATTGTTACAGGAGGGTATTTGATCATGAACGGAGTCACCTAGTGCAG”, the binding signal was 7910 fluorescence intensity (a.u.).

Turning to “ACTTAATTTGATCTAGAATGTGCAGACAGTCTCTTGAACCCGGAGTCACCTAGTGCAG”, the binding signal was 40800 fluorescence intensity (a.u.).

For the sequence “TTTGGTTAAAATTAAATTGTTTTAACTTTGATCAAGTTTACGGAGTCACCTAGTGCAG”, the binding signal was 9070 fluorescence intensity (a.u.).

In the case of “AATTGATTTATTTTGAAACAGAGAGAATACAGTTTATTTACGGAGTCACCTAGTGCAG”, the binding signal was 32400 fluorescence intensity (a.u.).

Regarding “TGCCAAGTCGCCGGTGCCTTGTCAATCAAGCTCCAGGTGGCGGAGTCACCTAGTGCAG”, the binding signal was 3400 fluorescence intensity (a.u.).

For “TTGTAATTTCATTACTTAATGAAATCAACCCCATTATCCACGGAGTCACCTAGTGCAG”, the binding signal is 18100 fluorescence intensity (a.u.).

On to “AGTAATTACTAAACATTCCTACGAGCAGTTTCATCCAAAGCGGAGTCACCTAGTGCAG”, for which the binding signal was 12400 fluorescence intensity (a.u.).

With “AATTGACTGGGTTGACGTTGTAGCCCGAGTTGCGAAATTCCGGAGTCACCTAGTGCAG”, the binding signal is 11600 fluorescence intensity (a.u.).

Consider “TCCATATGCCCTGTCAATTATACACGGGCCAGAAAATCCTCGGAGTCACCTAGTGCAG”, for which the binding signal is 5750 fluorescence intensity (a.u.).

For “ACTCACTTGATTTGTACTTTTACACAAGTTTATATTTGAGCGGAGTCACCTAGTGCAG”, the binding signal is 20600 fluorescence intensity (a.u.).

“CATATAATGGATTGTAATTAATACATGACTACATATGTTTCGGAGTCACCTAGTGCAG”: the binding signal is 15100 fluorescence intensity (a.u.).

“CCAAATTAATAAGGGTCAATTGGATCCATGGCAATATAAACGGAGTCACCTAGTGCAG”: the binding signal was 3660 fluorescence intensity (a.u.).

As for “TAAATTGCTGCGACATTAATTTCGCAGAGTTTCCCGGCAACGGAGTCACCTAGTGCAG”, the binding signal was 4500 fluorescence intensity (a.u.).

Regarding “CTCCATGATGAGTGAAGATAGGTAAAGTAACCAGGGCCTCCGGAGTCACCTAGTGCAG”, the binding signal is 5660 fluorescence intensity (a.u.).

Take “CCAAATTAATCACGACCGTCCATGTAGTTCTCCACCAACCCGGAGTCACCTAGTGCAG”: the binding signal is 20400 fluorescence intensity (a.u.).

Turning to “GGCTGTGATTGTGAGTTTGTGACCGAGACCTTAAGCTTATCGGAGTCACCTAGTGCAG”, the binding signal was 12200 fluorescence intensity (a.u.).

For “TACGTTTTACAATCATCTAATTTACACTTATACTTCTATCCGGAGTCACCTAGTGCAG”, the binding signal was 7020 fluorescence intensity (a.u.).

For “TTCATATGATGGATGCGGTTTCTGATGAGTTTGCATTTGGCGGAGTCACCTAGTGCAG”, the binding signal is 5060 fluorescence intensity (a.u.).

On to “GCTAAATGTTATTCACCGATTGTTTCCCAACTGTCAAGGTCGGAGTCACCTAGTGCAG”, for which the binding signal is 3810 fluorescence intensity (a.u.).

For the sequence “CAACCAATCAAGCCTCTTCTTATTTAATTCTACATACTTTCGGAGTCACCTAGTGCAG”, the binding signal is 11400 fluorescence intensity (a.u.).

Regarding “AGCTAAATAAACAACTAACCATCATTGTAATTTCTGCACACGGAGTCACCTAGTGCAG”, the binding signal is 5350 fluorescence intensity (a.u.).

As to “ATCCCAAACTCGTAAATACTCGCGAACCCCGAGGGCGAAGCGGAGTCACCTAGTGCAG”, the binding signal is 6310 fluorescence intensity (a.u.).

With “CTCATGATTAATTACGCTCTTTGAAATTTTATTGGAATTTCGGAGTCACCTAGTGCAG”, the binding signal is 34800 fluorescence intensity (a.u.).

For “ACTGAAATTTTCATAATAAAATACCTCCGCTGACAGCTGACGGAGTCACCTAGTGCAG”, the binding signal is 3320 fluorescence intensity (a.u.).

Take “AAGCCTAATTAATCCGTTATTAGCAAATGTTTACTGTAGCCGGAGTCACCTAGTGCAG”: the binding signal was 11300 fluorescence intensity (a.u.).

Consider “GAAGCTTAATTAGGCTCAAAAGATTGTCTCGCGGTTTCCACGGAGTCACCTAGTGCAG”, for which the binding signal was 16200 fluorescence intensity (a.u.).

For “AAGGATAATTTACTAAGGTGGTTATCTCTGGTAATTAGTTCGGAGTCACCTAGTGCAG”, the binding signal is 14200 fluorescence intensity (a.u.).

Take “TTTAATAATTTGTTTATAAAAGAAACTAAAGGGCACTGCTCGGAGTCACCTAGTGCAG”: the binding signal was 12200 fluorescence intensity (a.u.).

Take “AATGTATACAAGTTGTTAATTAGCTTTCGAGATGTATTCACGGAGTCACCTAGTGCAG”: the binding signal was 3210 fluorescence intensity (a.u.).

In the case of “CGTGGTCAGTCAATCGGGATTTGAGATCTTCAGATTTACTCGGAGTCACCTAGTGCAG”, the binding signal is 3270 fluorescence intensity (a.u.).
